About 14,000 (4.5%) of roughly 310,000 compounds showed an effect of 50% or more. Effects have a minus sign here. The list shows a part of the results.
What follows are compounds tested against human ether-à-go-go-related gene (hERG) potassium channel (human, UniProt Q12809) (assay: primary screen, population patch clamp on CHO cells stably expressing hERG).
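Also: peak tail current of the secondary pulse compared with the same well before compound.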

human ether-à-go-go-related gene (hERG) potassium channel, sequence (Q12809 whole entry, looked up): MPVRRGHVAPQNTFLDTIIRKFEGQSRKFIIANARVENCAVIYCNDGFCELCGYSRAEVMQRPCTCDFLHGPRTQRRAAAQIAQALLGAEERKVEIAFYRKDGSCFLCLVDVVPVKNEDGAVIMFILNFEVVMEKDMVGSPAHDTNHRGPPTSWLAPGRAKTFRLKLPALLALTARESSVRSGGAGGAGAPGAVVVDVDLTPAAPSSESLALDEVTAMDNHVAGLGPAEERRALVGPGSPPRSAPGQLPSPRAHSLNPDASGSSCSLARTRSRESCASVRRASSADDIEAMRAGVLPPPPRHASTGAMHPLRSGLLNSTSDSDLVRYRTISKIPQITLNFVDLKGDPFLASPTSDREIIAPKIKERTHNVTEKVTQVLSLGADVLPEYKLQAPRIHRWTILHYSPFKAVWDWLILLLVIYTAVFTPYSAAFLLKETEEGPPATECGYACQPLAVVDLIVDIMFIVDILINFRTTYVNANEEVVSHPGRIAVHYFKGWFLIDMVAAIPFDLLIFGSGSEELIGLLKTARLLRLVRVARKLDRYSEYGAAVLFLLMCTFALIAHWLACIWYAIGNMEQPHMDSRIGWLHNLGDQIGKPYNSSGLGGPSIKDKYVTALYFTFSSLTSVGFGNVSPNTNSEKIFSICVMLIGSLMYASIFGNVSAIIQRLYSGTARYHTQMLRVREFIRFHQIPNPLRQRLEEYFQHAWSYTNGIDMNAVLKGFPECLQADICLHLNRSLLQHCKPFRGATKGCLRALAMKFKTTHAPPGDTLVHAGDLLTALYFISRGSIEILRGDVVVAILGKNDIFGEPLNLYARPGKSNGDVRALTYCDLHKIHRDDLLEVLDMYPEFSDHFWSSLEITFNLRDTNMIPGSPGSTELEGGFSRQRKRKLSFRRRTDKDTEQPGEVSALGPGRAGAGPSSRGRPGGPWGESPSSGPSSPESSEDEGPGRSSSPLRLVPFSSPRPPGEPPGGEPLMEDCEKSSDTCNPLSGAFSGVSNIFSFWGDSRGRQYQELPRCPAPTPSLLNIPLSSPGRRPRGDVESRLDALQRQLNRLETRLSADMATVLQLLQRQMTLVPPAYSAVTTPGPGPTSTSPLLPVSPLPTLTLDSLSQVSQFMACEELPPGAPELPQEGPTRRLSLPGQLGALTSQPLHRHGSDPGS

| SMILES | hERG current change (%, negative = inhibition) at 10uM [%] |
| --- | --- |
| Nc1ccccc1Nc1nc2ccccc2[nH]1 | -6.13 |
| CC(C)(C)OC(=O)n1cc(CCO)c2ccccc21 | -3.4 |
| O=C(Nc1sc2c(c1C(=O)NCCCO)CCCC2)c1ccccc1 | -11.6 |
| Cc1cc(C)cc(NC(=O)NNC(=O)c2cc3occc3[nH]2)c1 | 13 |
| COC(=O)c1ccc2c(=O)n(CCN3CCOCC3)c(SCC(=O)C(C)(C)C)nc2c1 | -34.4 |
| COC(=O)C1=C(N)Oc2cc(C)[nH]c(=O)c2C1c1cccnc1 (centres unmarked) | -3.87 |
| CCOC(=O)c1c(NC(=O)c2cc(C)on2)c2cc([N+](=O)[O-])ccc2n1C | 25.9 |
| Cc1ccc(OCCOc2ccc(S(=O)(=O)N3CCCC3)cc2C(N)=O)cc1 | -6.6 |
| CC(C)N(C)Cc1nnnn1CC(=O)NCc1cc(F)cc(C(F)(F)F)c1 | 14.5 |
| Cc1c(C(=O)N(C)c2ccccc2Cl)cnn1-c1ccccc1 | -8.8 |
| CC(C)Cc1nc(SCC(=O)NCc2ccccc2)n[nH]1 | 10.7 |
| O=C(CC1C(=O)NCCN1Cc1ccc(F)cc1Cl)NCc1ccon1 (centres unmarked) | 10.8 |
| Cc1cc([N+](=O)[O-])nn1CC(=O)N1c2ccccc2CC1C (centres unmarked) | -10.2 |
| O=C(c1ccc(Cl)cc1)N1CCCCC(Sc2nnc(-c3ccc4c(c3)OCO4)o2)C1=O (centres unmarked) | 14.6 |
| COc1ccc2c(c1)CCc1c(C(=O)N3CC4(C)CC3CC(C)(C)C4)noc1-2 (centres unmarked) | -5.94 |
| CCC(C)[C@H](NC(=O)C1CC(=O)N(c2ccc(OC)cc2)C1)C(=O)N1CCCCC1 (some centres unmarked) | 18.7 |
| c1cncc(-c2nc(-c3ccc4c(c3)OCO4)cs2)c1 | 7.57 |
| O=c1[nH]cc(S(=O)(=O)NCc2ccccc2)c(=O)[nH]1 | 18.4 |
| O=C(CN(c1cccc([N+](=O)[O-])c1)S(=O)(=O)c1ccccc1)N1CCCCC1 | -24.8 |
| COc1ccc(OC)c(Cc2nnc(CCC(=O)NC3CCCC3)o2)c1 | 6.95 |
| CC1=C/C(=N\NC(=O)c2cccs2)CC(C)(C)C1 | 11.5 |
| C/C(Cl)=C\Cn1c(N2CCCC2)nc2c1c(=O)[nH]c(=O)n2C | -20.4 |
| O=C(NNc1c(F)c(F)cc(F)c1F)c1ccc(Cl)nc1 | 25.2 |

| SMILES | hERG current change (%, negative = inhibition) at 10uM [%] |
| --- | --- |
| CC/C(=N\NC(=O)c1nnn(-c2nonc2N)c1CN(C)c1ccccc1)c1ccccc1 | 11.4 |
| CCC(=O)c1cn(CCOc2ccccc2OC)c2ccccc12 | 20.3 |
| CNC(=O)CS(=O)CC(=O)Nc1cc(OC(C)C)c(Cl)cc1Cl (centres unmarked) | 16.5 |
| COc1ccc(N2CCN(CC(=O)N3c4ccccc4CC3C)CC2)cc1.O=C(O)C(=O)O (centres unmarked) | -21.3 |
| CCc1sc(C(=O)Nc2cccc(-n3cnnn3)c2)cc1C | -4.05 |
| Cc1ccc(N(CC(=O)NCC2CCCO2)C(=O)CCC(=O)Nc2cc(C)on2)cc1 (centres unmarked) | 9.1 |
| NC(=O)c1c(NC(NC(=O)c2ccco2)C(=O)c2ccc(Cl)cc2)sc2c1CCCC2 (centres unmarked) | -20.4 |
| O=C(COC(=O)c1ccncc1)Nc1ccccc1 | 12.9 |
| C=Cn1cc[n+](CC(=O)C(C)(C)C)c1.[Br-] | 8.71 |
| COc1ccc(C2CC(c3cccs3)=NN2C(=O)CSc2nc(=O)n3ccccc3n2)cc1 (centres unmarked) | -57.5 |
| O=C(Nc1ccc(Cl)c(S(=O)(=O)N2CCOCC2)c1)c1cn2ccccc2n1 | 11.9 |
| CCN(CC)C(=O)c1ccc(Nc2nnc(-c3ccc(O)cc3)c3ccccc23)cc1 | -1.49 |
| Cc1cc2occ(CC(=O)NC3CCCc4ccccc43)c2cc1C (centres unmarked) | 13.5 |
| Cn1c(N2CCCCC2)nc2c1c(=O)[nH]c(=O)n2C | -13.1 |
| C=CCn1c(CNC(=O)c2ccco2)nnc1SCC(=O)Nc1cccc(Br)c1 | -47.3 |
| CCOC(=O)C1CCCN(C(=O)CSc2ccc(NC(C)=O)cc2)C1 (centres unmarked) | 14.9 |
| CCOC(=O)c1c(C)[nH]c(C(=O)COC(=O)C(C)N2C(=O)C3CCCCC3C2=O)c1C (centres unmarked) | 3.57 |
| O=C(CC1C(=O)NCCN1Cc1ccc(Cl)c(F)c1)NCC1CCOCC1 (centres unmarked) | 9.07 |
| CN(C(=O)c1ccc(NC(=O)Cc2cccc([N+](=O)[O-])c2)cc1)C1CC1 | -10.7 |
| COc1cccc(N2CCN(c3ccc4nnc(CCC(=O)Nc5ncccc5C)n4n3)CC2)c1 | 0.983 |
| O=C(C1CCN(Cc2ccc(Cl)cc2)CC1)N1CCN(C(c2ccccc2)c2ccccc2)CC1 | 11.8 |
| Nc1nc(-c2ccc(Cl)cc2)c(N=Nc2ccc(S(=O)(=O)N3CCOCC3)cc2)s1 | -1.17 |
| Cc1cccc(C)c1NC(=O)CS(=O)CC(=O)NC1CCN(Cc2ccccc2)CC1 (centres unmarked) | 10.7 |

| SMILES | hERG current change (%, negative = inhibition) at 10uM [%] |
| --- | --- |
| CCOc1ccc(NC(=S)N2C3CCCC2CC(NC(=O)C2CC2)C3)cc1 (centres unmarked) | -8.64 |
| COc1ccccc1C(=O)NCCCCNC(=O)c1ccccc1OC | 7.51 |
| O=[N+]([O-])c1ccccc1Oc1ncccc1[N+](=O)[O-] | 23.7 |
| CC(C)CCC(CC(C)O)C(=O)NNC(=S)Nc1ccccc1 (centres unmarked) | 6.2 |
| c1coc(-c2ccnc3nc(-n4cccc4)nn23)c1 | -4.64 |
| S=C(NCCc1ccc(Cl)cc1)NC1CCCC1 | 17.4 |
| CCOC(=O)c1c(NC(=O)CSc2nc3nc(C)cc(C)n3n2)sc(CC)c1C | 17.2 |
| CCN(C(=O)CSc1cc(C)c2ccccc2n1)C1CCS(=O)(=O)C1 (centres unmarked) | 3.09 |
| CN1CCC(N(C)C(=O)c2sc3cc(F)ccc3c2Cl)CC1 | -47.9 |
| Cc1c(C=O)c2ccccc2n1CC(=O)NCc1ccc2c(c1)OCO2 | 21.8 |
| Cc1nc(-c2ccc(S(=O)(=O)Nc3ccc(Br)cc3Cl)s2)cs1 | 13.9 |
| Cc1cnc(C(=O)OCC(=O)Nc2sc3c(c2C(N)=O)CCCC3)cn1 | 1.13 |
| CC1CCCN(C(=O)COC(=O)C2CCN(S(=O)(=O)c3ccc4c(c3)OCCO4)CC2)C1 (centres unmarked) | -7.83 |
| O=S(=O)(NN=C1CCCCCC1)c1ccc(Cl)cc1 | 14.7 |
| CCOC(=O)CN(C(=O)CSc1nnc(COc2ccc(OC)cc2)n1CC)c1ccccc1 | -22 |
| Cc1cc(=O)oc2cc(OCc3cc4c(cc3Cl)OCO4)ccc12 | 8.74 |
| Cc1ccc(C(=O)Cn2nnc3ccccc32)cc1 | 4.99 |
| O=C1C(Cl)=C(NCC2CCCO2)C(=O)N1c1cccc(Cl)c1Cl (centres unmarked) | -18.4 |
| O=C(COc1ccc(S(=O)(=O)Nc2ccccc2)cc1)NCc1cccnc1 | 0.109 |
| Cc1c(CC(=O)N2CCC(C(N)=O)CC2)c(=O)oc2cc3c(cc12)CCC1(CCCCC1)O3 | -10.9 |
| Cc1ccc(CC2C(=O)N(c3ncccn3)C(=O)C2C)cc1 (centres unmarked) | 10.4 |
| O=C(Nc1ccccc1)c1cc2n(n1)C(C(F)(F)F)CC(C1CC1)N2 (centres unmarked) | 6.72 |
| O=C(NCCN1CCOCC1)c1ccc(Cl)c(Cl)c1 | -2.39 |

| SMILES | hERG current change (%, negative = inhibition) at 10uM [%] |
| --- | --- |
| O=C(CCc1c[nH]c2ccccc12)N1CCN(S(=O)(=O)c2ccccc2)CC1 | -26.5 |
| C#CCNC(=O)C1=C[C@@H](C)C[C@@H](OCc2ccc(CO)cc2)O1 | 5.12 |
| O=C(COC(=O)C1(c2cccc(F)c2)CCCC1)NCc1cccs1 | 11.3 |
| CCOC(=O)/C(C#N)=C\c1ccco1 | 13.1 |
| CCOc1ccc(/C=C2\SC(=S)N(N3C(=O)C4CC4C3=O)C2=O)cc1 (centres unmarked) | 15.4 |
| Cc1cc(NC(=O)CCC(=O)N(c2ccc(F)cc2)C(C(=O)NC2CCCC2)c2ccncc2)no1 (centres unmarked) | 15.1 |
| COc1cccc(CNC(=O)Cc2ccc(-c3ccccc3)cc2)c1 | 10.9 |
| Cn1c(SCC(=O)NC2CCS(=O)(=O)C2)nnc1-c1ccco1 (centres unmarked) | 7.35 |
| O=C1CSC(c2cccs2)N1c1ccccc1 (centres unmarked) | 15 |
| CCCN1CCC(NC(=O)CCc2nnc(-c3ccccc3)o2)CC1 | 10.3 |
| Cc1oc(/C=N/NC(=O)CN(c2ccccc2Br)S(C)(=O)=O)cc1Br | -2.1 |
| COc1cnn(C(C)(C)C)c(=O)c1Cl | 15.1 |
| O=C(COC(=O)c1nsc(Cl)c1Cl)NC1CCCCC1 | 17.1 |
| CCC1CCC(N2CCN(c3ccc([N+](=O)[O-])cc3)CC2)CC1 (centres unmarked) | -79.8 |
| CCCC(=O)Nc1nn(C)c2nc3ccc(C)cc3cc12 | 25.3 |
| Cc1ccc(Nc2nc(COC(=O)C3CC3)cs2)cc1 | -13.1 |
| CCOC(=O)C1CCN(C2=NC(=O)/C(=C/c3ccc(OC)c(OC)c3)S2)CC1 | -17.8 |
| Cc1cccc(NC(=O)C(=O)NCC2CCCO2)c1 (centres unmarked) | 18.8 |
| Cn1c(=O)n(Cc2ccccc2)c2ccccc21 | -4.25 |
| CCCC(=O)Nc1sc(C)c(-c2ccc(OC)cc2)c1C#N | -1.76 |

From paper PMC4336329 (PLoS ONE, 2015)
